According to the supplement of paper PMC4967469:
IC50 is the fitted dose that halves viability relative to control wells, and lower means more sensitive; where the fit passes the top or lowest dose, that dose stands as a limit. The AUC spans the tested range (256-fold, ending at the top dose) of the same fit; values near 1 show little effect.

Compound: N#CC[C@H](C1CCCC1)n1cc(-c2ncnc3[nH]ccc23)cn1 [Ruxolitinib]
Assay: Viability of human cancer cell lines after 72 h of drug (GDSC screen)
Protocol: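 Human cancer cell lines in 384-well plates, medium with 10% serum, drug for 72 h over a 256-fold dose range (nine 2-fold or five 4-fold steps up to the top dose). Adherent lines were fixed and stained with the nucleic acid dye Syto60, suspension lines read with resazurin; signal relative to control wells, capped at 0 and 100%. One two-parameter sigmoid per drug and line, fitted in a mixed model over all curves with the slope shared within a line.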

Row | Cell Line | AUC | IC50 [µM]
1 | KMOE-2 (acute myeloid leukaemia, suspension, top dose 5.24 µM) | 0.99 | > 5.24
2 | VA-ES-BJ (soft tissue, adherent, top dose 5.24 µM) | 0.985 | > 5.24
3 | KYSE-450 (oesophagus, adherent, top dose 5.24 µM) | 0.971 | > 5.24
4 | PFSK-1 (medulloblastoma, adherent, top dose 5.24 µM) | 0.985 | > 5.24
5 | ES6 (Ewing sarcoma, adherent, top dose 5.24 µM) | 0.924 | > 5.24
6 | PCI-4B (head and neck, adherent, top dose 5.24 µM) | 0.987 | > 5.24
7 | D-283MED (medulloblastoma, adherent, top dose 5.24 µM) | 0.991 | > 5.24
8 | H2795 (mesothelioma, adherent, top dose 5.24 µM) | 0.949 | > 5.24
9 | CS1 (bone, adherent, top dose 5.24 µM) | 0.983 | > 5.24
10 | NCI-H1694 (small cell lung carcinoma, suspension, top dose 5.24 µM) | 0.987 | > 5.24
11 | TOV-112D (ovary, adherent, top dose 5.24 µM) | 0.969 | > 5.24
12 | LN-405 (glioma, adherent, top dose 5.24 µM) | 0.977 | > 5.24
13 | C-4-I (cervix, adherent, top dose 5.24 µM) | 0.986 | > 5.24
14 | HD-MY-Z (Hodgkin lymphoma, adherent, top dose 5.24 µM) | 0.984 | > 5.24
15 | SBC-1 (small cell lung carcinoma, suspension, top dose 5.24 µM) | 0.989 | > 5.24
16 | GCT (soft tissue, adherent, top dose 5.24 µM) | 0.989 | > 5.24
17 | SW48 (large intestine, adherent, top dose 5.24 µM) | 0.987 | > 5.24
18 | GI-ME-N (neuroblastoma, adherent, top dose 5.24 µM) | 0.953 | > 5.24
19 | OE19 (oesophagus, adherent, top dose 5.24 µM) | 0.986 | > 5.24
20 | HAL-01 (lymphoblastic leukaemia, suspension, top dose 5.24 µM) | 0.983 | > 5.24

Row | Cell Line | AUC | IC50 [µM]
21 | SJRH30 (rhabdomyosarcoma, adherent, top dose 5.24 µM) | 0.985 | > 5.24
22 | MOG-G-UVW (glioma, adherent, top dose 5.24 µM) | 0.94 | > 5.24
23 | NCI-H748 (small cell lung carcinoma, suspension, top dose 5.24 µM) | 0.947 | > 5.24
24 | LNZTA3WT4 (glioma, adherent, top dose 5.24 µM) | 0.989 | > 5.24
25 | ABC-1 (lung adenocarcinoma, adherent, top dose 5.24 µM) | 0.982 | > 5.24
26 | A704 (kidney, adherent, top dose 5.24 µM) | 0.989 | > 5.24
27 | PCI-6A (head and neck, adherent, top dose 5.24 µM) | 0.985 | > 5.24
28 | HN (head and neck, adherent, top dose 5.24 µM) | 0.989 | > 5.24
29 | VMRC-RCW (kidney, adherent, top dose 5.24 µM) | 0.987 | > 5.24
30 | KP-N-YN (neuroblastoma, adherent, top dose 5.24 µM) | 0.987 | > 5.24
31 | SIMA (neuroblastoma, adherent, top dose 5.24 µM) | 0.977 | > 5.24
32 | PSN1 (pancreas, adherent, top dose 5.24 µM) | 0.991 | > 5.24
33 | NCI-H727 (lung carcinoid, adherent, top dose 5.24 µM) | 0.976 | > 5.24
34 | Hs939-T (melanoma, adherent, top dose 5.24 µM) | 0.986 | > 5.24
35 | JVM-2 (lymphoid neoplasm, suspension, top dose 5.24 µM) | 0.98 | > 5.24
36 | LS-411N (large intestine, adherent, top dose 5.24 µM) | 0.976 | > 5.24
37 | BL-41 (Burkitt lymphoma, suspension, top dose 5.24 µM) | 0.976 | > 5.24
38 | G-292 Clone A141B1 (osteosarcoma, adherent, top dose 5.24 µM) | 0.972 | > 5.24
39 | SLVL (B-cell lymphoma, suspension, top dose 5.24 µM) | 0.954 | > 5.24
40 | NCI-H1836 (small cell lung carcinoma, suspension, top dose 5.24 µM) | 0.986 | > 5.24

Row | Cell Line | AUC | IC50 [µM]
41 | HuO-3N1 (osteosarcoma, adherent, top dose 5.24 µM) | 0.981 | > 5.24
42 | KP-N-YS (neuroblastoma, adherent, top dose 5.24 µM) | 0.953 | > 5.24
43 | KP-2 (pancreas, adherent, top dose 5.24 µM) | 0.986 | > 5.24
44 | Hey (ovary, adherent, top dose 5.24 µM) | 0.988 | > 5.24
45 | SU-DHL-16 (B-cell lymphoma, suspension, top dose 5.24 µM) | 0.993 | > 5.24
46 | CAL-62 (thyroid, adherent, top dose 5.24 µM) | 0.985 | > 5.24
47 | ROS-50 (B-cell leukaemia, suspension, top dose 5.24 µM) | 0.972 | > 5.24
48 | G-MEL (melanoma, adherent, top dose 5.24 µM) | 0.975 | > 5.24
49 | SCC-15 (head and neck, adherent, top dose 5.24 µM) | 0.968 | > 5.24
50 | NCI-H2135 (non-small cell lung carcinoma, adherent, top dose 5.24 µM) | 0.989 | > 5.24
51 | PA-TU-8902 (pancreas, adherent, top dose 5.24 µM) | 0.982 | > 5.24
52 | ME-180 (cervix, adherent, top dose 5.24 µM) | 0.983 | > 5.24
53 | EFO-27 (ovary, adherent, top dose 5.24 µM) | 0.98 | > 5.24
54 | P12-ICHIKAWA (T-cell lymphoblastic leukaemia, suspension, top dose 5.24 µM) | 0.974 | > 5.24
55 | TGBC24TKB (biliary tract, adherent, top dose 5.24 µM) | 0.989 | > 5.24
56 | ME-1 (acute myeloid leukaemia, suspension, top dose 5.24 µM) | 0.987 | > 5.24
57 | ML-1 (thyroid, adherent, top dose 5.24 µM) | 0.984 | > 5.24
58 | JM1 (B-cell lymphoma, suspension, top dose 5.24 µM) | 0.981 | > 5.24
59 | SNU-182 (liver, adherent, top dose 1.024 µM) | 0.953 | > 1.02
